Sequences and labels used below:
T1: UNK ZnF1-3 (human, UniProt Q9C0B0 31-174)
T1 sequence: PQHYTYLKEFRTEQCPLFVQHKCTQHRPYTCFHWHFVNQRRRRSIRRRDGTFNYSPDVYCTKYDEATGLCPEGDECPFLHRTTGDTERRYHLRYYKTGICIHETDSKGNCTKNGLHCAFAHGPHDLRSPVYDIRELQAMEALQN

B1: chr3:10015032:10015033:+_ENSMUSG00000027533_ENSMUST00000029046|mus_mus|mus_mus_mus_hu_True|48_68 (ssRNA)
RNA: GGGAGUUCUACAGUCCGACGAUCGUUUUUACCAUCACAAGUGAUGAUACAAUCUGGCUUGGCCAUUGCAGCCAUCUUUCGCAAAGCCAGUCCUACUCCUAGCUCCUUCAUGUAUUCAUCAAAGCCUUUGCUGUCCACCAGGCGCAACAGAGGAUUGAGCAUCA
B2: chr5:128448638:128448639:+_ENSG00000066583_ENST00000173527|hu_mus|hu_hu_hu_mus_False|48_98 (ssRNA)
RNA: GGGAGUUCUACAGUCCGACGAUCGGCACUCGCCUUAAUUAGAUUCUGAAUUUCCUUGAACUUCGGGUGGUCUUUGUCAGCCACCAGCUGAAGCAGAACAGCCUCACUAGUGGUCACGAUGAUCCCAGUGCGGGCAAGACGCUCCAACAGAGGAUUGAGCAUCA
B3: 97373864_97376299_1737_CDS_ENSG00000059573_ENST00000371224|human|control|control (ssRNA)
RNA: GGGAGUUCUACAGUCCGACGAUCAUCUAUCAUUUUGUCUAGGCGGCAAAGAUCUUCAACUUCUUCUCUGGUAUUCACCAGUUGCACGGCCUCCUUGACUCCAUGGAUUGAGAGAGCCUCCUGGGUCAGGAGGUGGAGAAUCCGCAACAGAGGAUUGAGCAUCA
B4: chr2:115890611:115890612:-_ENSMUSG00000027210_ENSMUST00000102538|mus_hu|motif|central (ssRNA)
RNA: GGGAGUUCUACAGUCCGACGAUCCAAUAAACUCCUGGAUGUGUCGUAUAUUUAAUAUCCCAGUCCGGAUAAGAAAGUGAUCGGGGCUGAAGAUUCCUUUUUUUUUUUUCCAAACCAAAGAGACUUCUCCCAAUUCUCCAAUAUCAACAGAGGAUUGAGCAUCA
B5: chr4:76721835:76721836:+_ENSG00000138768_ENST00000264904|hu_mus|hu_hu_hu_mus_True|1_38 (ssRNA)
RNA: GGGAGUUCUACAGUCCGACGAUCGUUUGGCUGGGGUUUCUGAGACGCUCUGGAAUAUAACUCAUGUUUGCUAAUAAAUCCUAGUUUCUCUAUGAAAUCUCUUUGCCCAAUCCUCUUCUCUAUUAGUUGCUUUAGUUCUCUUUCCAACAGAGGAUUGAGCAUCA
B6: chr22:29966471:29966472:-_ENSG00000184117_ENST00000216121|hu_mus|FALSE|FALSE (ssRNA)
RNA: GGGAGUUCUACAGUCCGACGAUCAGUCUCCUUCUUGGACAGCAGAGUGGAGUGGGCGUCCUUCCGAGGAUCCACCUUGUGGACAAAGAGGGAACGGAACCAGCUUCCUUCACUGUCCUUGGAAUAGAAGCGCACAGCACCCGCCAACAGAGGAUUGAGCAUCA
B7: chr16:32231720:32231721:-_ENSMUSG00000035764_ENSMUST00000042732|mus_mus|FALSE|FALSE (ssRNA)
RNA: GGGAGUUCUACAGUCCGACGAUCUUGACAAAUUUAAUUCUCAAGGACCCCAAGAACCCCAGCGAGUCACUCUCUGUCCCUAAUUUUAUUAGAUUUAAAACAAAAUAUACAUACAGCAAUCAUGUAAAAAGUACAAAGAUUUUACAACAGAGGAUUGAGCAUCA
B8: chr12:39756943:39756944:-_ENSG00000139116_ENST00000544797|hu_mus|hu_hu_hu_mus_False|18_68 (ssRNA)
RNA: GGGAGUUCUACAGUCCGACGAUCGGUUUGGCUGUUACCCCCAAGGGAAUCCUGCAAGAGUCUUGUCAGCUUGGAAUCUCUGUAAGGGACAUGGGUGGCUCUCUUGCUCUUGUCCCCCAAGGCACUUAUUACAUUCCCAAGAGCCAACAGAGGAUUGAGCAUCA
B9: chr9:33280828:33280829:+_ENSG00000086065_ENST00000223500|hu_hu|motif|central (ssRNA)
RNA: GGGAGUUCUACAGUCCGACGAUCUCCUAGUCCCAUAAUAUGUGUUUGUUUUACAAGAUAUGCUUGAAUGAUGCAAAUCGGUGAAGCAGGGAUCUGUGGCAAUCCAAAUUCAUCCACCAGAACUCCAUCCUUGUUUUUUGUAUCCAACAGAGGAUUGAGCAUCA
B10: 21786388_21788020_588_3pUTR_ENSMUSG00000028248_ENSMUST00000108229|mouse|control|control (ssRNA)
RNA: GGGAGUUCUACAGUCCGACGAUCUUGCCAAUAAGGAGGAUGAAAUCCACCUUGUGGUGGACCAAAAGCAGCCCCAUGCUGAUAGUCAAACUGGUUCACCGGCCCCACUGCAAAGUUAUCAGGUGGUCCACCAAAGUUGUGAUUCAACAGAGGAUUGAGCAUCA
B11: chr2:232320318:232320319:-_ENSG00000115053_ENST00000322723|hu_hu|hu_hu_hu_mus_True|58_78 (ssRNA)
RNA: GGGAGUUCUACAGUCCGACGAUCACUAUUAAAGUCUACAAAACCAAACCCUUUGGAGGACCCAGUUUCCCGAUCAGUAACUAUCCUUGCACGAACAGAGCCCUCAAAUGAUUCUUUUAAGGUCUCUUCAGUGGUAUCCUCAGACAACAGAGGAUUGAGCAUCA
B12: chr3:133126781:133126782:-_ENSMUSG00000040943_ENSMUST00000098603|mus_hu|FALSE|FALSE (ssRNA)
RNA: GGGAGUUCUACAGUCCGACGAUCUAUUUAUAACCAUCCUCAGAUCUUAUAAACCAAACAUCUCAUGAAAAUGAAAUGAAACUAGUUUUUAAAAAAGCAUAGAAAAAUGCACACAGAAGUUAUCUUAGUGUCAAACUGCAAAAGCAACAGAGGAUUGAGCAUCA
B13: chr9:120860725:120860726:+_ENSMUSG00000006932_ENSMUST00000007130|mus_mus|FALSE|FALSE (ssRNA)
RNA: GGGAGUUCUACAGUCCGACGAUCCAUUUUAGCUCCUUCCUGAUGGAGCAGGAGAUUAUGCAGUGUCGUGAUGGCGUAGAACAGUACAGAAUCCACUGGUGACCCAAGCAUUUUCACCAGCGCUGGGAUGCCACCAGACUUAAACAACAGAGGAUUGAGCAUCA
B14: 134350691_134351898_1818_CDS_ENSMUSG00000042046_ENSMUST00000045110|mouse|control|control (ssRNA)
RNA: GGGAGUUCUACAGUCCGACGAUCGCUGAGGCUGUCGAUGGCUUCCUGGGCCACCUUCCUCUUCCACUCUAGAGUGAUGGUGGGUGGGUUCACCCAUGUGAUACGCUGGAUGAUCUGCUUGAUUUGUUCCCAAAGCAUCCGAGUCAACAGAGGAUUGAGCAUCA

The other results are listed elsewhere or left out.

This experiment addresses T1, UNK ZnF1-3. The experiment can be described thus: nsRBNS (natural sequence RNA bind-n-seq); RBNS binding buffer (assumed for nsRBNS): 25 mM Tris pH 7.5, 150 mM KCl, 3 mM MgCl2, 0.01% Triton X-100, 500 ug/ml BSA, 20 U/ml SUPERase-In, 4 C; UNK is unkempt and MSI1 is Musashi-1; names of the RNAs are library labels; protein concentration not given here; high values mean tight binding.
For the molecule B1, the binding signal came to 0.668 enrichment R.
The result for B2 reads 0.717 enrichment R; that for B3, 0.4 enrichment R; that for B4, 0.911 enrichment R.
The result for B5 reads 0.393 enrichment R; that for B6, 1.36 enrichment R.
For B7, the binding signal was found to be 2.16 enrichment R.
B8 gave a binding signal of 0.605 enrichment R.
B9 came in with a binding signal of 0.987 enrichment R.
Turning to B10, the binding signal is 0.934 enrichment R.
The result for B11 reads 0.603 enrichment R.
The result for B12 reads 0.845 enrichment R; that for B13, 0.629 enrichment R.
The result for B14 reads 0.479 enrichment R.

The values above are taken from publication PMC12136788.
